In PubChem BioAssay AID1030 (National Center for Advancing Translational Sciences (NCATS), 2008):
Screen size: about 220,000 compounds; about 16,000 (7.3%) were called active. Inconclusive means that the source gave no clear call. Such entries were picked first, then a sample of the others. The call rests on the fitted dose curve; in most records, active means well fitted inhibition curve with a large enough effect (not every such curve was filed as active); inconclusive means small, poorly fitted or top-dose-only effect, or another doubt; inactive means no such curve, though single readings can be large or run the other way. Potencies of inconclusive entries are left out as doubtful fits. Where a structure was tested more than once in an assay, its records may differ in their call.

biological target: Aldehyde dehydrogenase 1A1 (Homo sapiens) (UniProt P00352); test: qHTS Assay for Inhibitors of Aldehyde Dehydrogenase 1 (ALDH1A1); details: Purified ALDH1A1, NADH fluorescence, propionaldehyde substrate; series mostly up to 75.3 µM; activity, negative = inhibition: at the top concentration;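 on activity, negative = inhibition: plate controls were no enzyme wells and a reference inhibitor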
UniProt P00352, sequence (P00352 whole entry, looked up): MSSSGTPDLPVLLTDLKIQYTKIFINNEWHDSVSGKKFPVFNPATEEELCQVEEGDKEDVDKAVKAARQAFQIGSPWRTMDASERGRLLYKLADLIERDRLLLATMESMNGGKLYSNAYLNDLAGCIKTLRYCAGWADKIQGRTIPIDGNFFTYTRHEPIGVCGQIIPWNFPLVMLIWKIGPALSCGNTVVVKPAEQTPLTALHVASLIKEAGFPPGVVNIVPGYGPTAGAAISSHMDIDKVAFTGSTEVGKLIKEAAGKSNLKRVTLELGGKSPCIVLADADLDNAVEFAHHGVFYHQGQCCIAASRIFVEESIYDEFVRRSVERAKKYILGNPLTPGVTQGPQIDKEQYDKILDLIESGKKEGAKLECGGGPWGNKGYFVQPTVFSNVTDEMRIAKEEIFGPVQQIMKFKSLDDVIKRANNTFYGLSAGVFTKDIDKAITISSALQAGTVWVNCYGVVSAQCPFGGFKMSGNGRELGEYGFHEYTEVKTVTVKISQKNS
Potency means the concentration at half of the fitted maximal effect; tags describe the fitted curve by direction and shape.

Compound | Potency | activity, negative = inhibition
CCN(CC)S(=O)(=O)c1cccc(NC(=O)/C=C/c2cccc([N+](=O)[O-])c2)c1 | active: 7.94 µM | –
CCCNC(=O)COC(=O)c1cc2c(=O)n3ccccc3nc2s1 | inconclusive [inhibitor, partial curve] | –
CN(C)c1nc(N)nc(CSc2nnnn2-c2ccccc2)n1 | inconclusive [inhibitor, partial curve] | –
O=C(N/N=C/c1ccccc1[N+](=O)[O-])c1ccc(CN2CCOCC2)cc1 | inconclusive [inhibitor, single point] | –
CN(C)c1ccc(C(=C2C=CC(=[N+](C)C)C=C2)c2ccccc2)cc1 | active: 8.91 µM | inactive: -10.4% [at 13.5 µM]
Cc1ccc(C(=O)c2coc3c2C(=O)C(=O)c2ccccc2-3)cc1 | active: 20 µM | –
O=C(Nc1ccc(-c2nc3cccnc3s2)cc1)c1ccc(Br)o1 | inconclusive [inhibitor, single point] | –
CCOc1ccc(-c2nn3c(-c4ccccc4)nnc3s2)cc1 | inconclusive [inhibitor, single point] | –
CC(C)(C)C(=O)Nc1nc2c(s1)COc1ccccc1-2 | – | inactive: -7.7%
CS(=O)(=O)N(CC(=O)N1CCN(c2ccc(F)cc2)CC1)c1ccc(F)c(Cl)c1 | – | inactive: 3.15%
CCN1C(=O)c2cccc3c(S(=O)(=O)N(C(=O)c4cccnc4)c4ccc(OC)cc4)ccc1c23 | inconclusive [inhibitor, partial curve] | –
COc1cccc(C(=O)NCC(=O)N/N=C/c2ccc(OC(=O)c3cccs3)c(OC)c2)c1 | – | inactive: -3.82%
CCC/C(O)=C1\C(=O)CC(c2ccccc2)CC1=NC(C)C(=O)O (stereo not drawn) | – | inactive: -2.77%
COc1cc(OC)cc(C(=O)NCc2ccc3[nH]c(C)cc3c2)c1 | inconclusive [inhibitor, single point] | –
Cc1cc(=O)oc2c(C)c(OCC(=O)N(C)C)ccc12 | inconclusive [inhibitor, partial curve] | –
COCCn1c(=O)c(-c2ccccc2)nc2cnc(N3CCN(C)CC3)nc21 | inconclusive [inhibitor, partial curve] | –
CSc1nc(-c2ccc(N(C)C)cc2)c(C#N)c(=O)n1C | inconclusive [inhibitor, partial curve] | –
O=C(Cn1cc2c(n1)CCCCC2)N1CCCCC1 | – | inactive: -6.67%
O=C(O)CCNS(=O)(=O)c1ccc2c(c1)CCCC2 | inconclusive [inhibitor, single point] | –
CCS(=O)(=O)c1ccc(-c2csc(-c3ccccc3)n2)c(Cl)c1Cl | inconclusive [inhibitor, single point] | –
CC(=O)Nc1ccc(S(=O)(=O)N2CCN(Cc3cccs3)CC2)cc1 | inconclusive [inhibitor, single point] | –
C=CCn1c(O)c(C=Nc2ccccc2)sc1=S | inconclusive [inhibitor, partial curve] | –
O=C(C1CCN(CC2CC=CCC2)CC1)N(CCc1ccccc1)Cc1ccccc1 (stereo not drawn) | – | inactive: -4.3%
Cc1ccc(C(=O)/C=C/c2c(C)nn(-c3ccccc3)c2Cl)cc1 | inconclusive [inhibitor, partial curve] | –
Cc1cccc(NC(=S)Nc2ccc3cn[nH]c3c2)c1 | active: 10 µM | –
O=C(Nc1c(C(=O)Nc2ccccc2)cnn1-c1ccccc1)c1ccco1 | inconclusive [inhibitor, single point] | –

Compound | Potency | activity, negative = inhibition
COC(=O)Nc1nc2ccc(-c3n[nH]c(=O)c4ccccc34)cc2[nH]1 | – | inactive: 3.63%
O=C(CN1CCCC1)Nc1ccc(NC(=O)Nc2ccccc2)cc1 | – | inactive: 7.25%
CCCCn1nnnc1NCc1cccnc1 | – | inactive: 9.56%
N#C/C(=C\c1cccs1)C(=O)Nc1nccs1 | inconclusive [inhibitor, single point] | –
CCCc1[nH]nc2c1C(c1cc(OC)cc(OC)c1)C(C#N)=C(N)O2 (stereo not drawn) | – | inactive: -7.84%
CC(C)c1ccc(S(=O)(=O)N2CCN(CCC(=O)Nc3ccc(N(C)C)cc3)CC2)cc1 | inconclusive [inhibitor, partial curve] | –
Cc1cc(C)nc(SCC(=O)Nc2ccc(N3CCOCC3)c(Cl)c2)n1 | active: 22.4 µM | –
O=C(Cc1nn[nH]n1)NCc1ccccc1Cl | inconclusive [inhibitor, single point] | –
CC(C)NC(=O)c1onc(CSc2ccc(F)c(F)c2)c1C(=O)O | active: 22.4 µM | –
COc1ccc(OC)c(CCNC(=O)Cn2sc3nc(C)cc(C)c3c2=O)c1 | active: 2.51 µM | –
O=[N+]([O-])c1ccc(O)c2ncccc12 | inconclusive [inhibitor, single point] | –
COC(=O)CC1Oc2cc3oc4c(c3cc2O1)C(=O)CC(C)(C)C4 (stereo not drawn) | active: 10 µM | –
CCC(C)[C@@H](N)C(=O)N/N=C/c1ccc2ncccc2c1 (stereo partly drawn) | inconclusive [inhibitor, partial curve, poor fit] | –
COc1cc(NC(=O)CCNS(=O)(=O)c2ccc3c(c2)CCC(=O)N3)cc(OC)c1 | – | inactive: -16.9%
CCCCCCC#CC1C=CC(OC(C)=O)C(COC(C)=O)O1 (stereo not drawn) | active: 3.16 µM | –
CC(Oc1ccccc1)C(=O)N=Nc1c(O)[nH]c2ccc(Br)cc12 (stereo not drawn) | inconclusive [inhibitor, full curve, poor fit] | –
O=C(NCCN1C(=O)C2C3C=CC(C3)C2C1=O)NCc1ccccc1 (stereo not drawn) | inconclusive [inhibitor, single point] | –
COc1ccc(C(OC(=O)c2ccco2)C(=O)NC(C)(C)C)cc1 (stereo not drawn) | – | inactive: 9.76%
Cc1ccsc1C(C(=O)NC(C)(C)C)N(C(=O)c1csnn1)c1ccccc1 (stereo not drawn) | – | inactive: 4.5%
Cc1ccc2c(N)c(C#N)sc2n1 | inconclusive [inhibitor, partial curve] | –
CCC(=O)N1CCN(c2ccccc2NC(=O)Cc2ccc(Cl)cc2)CC1 | – | inactive: -5.76%
CCc1c(C#N)c(N)nc(SCC(=O)OCc2ccccc2)c1C#N | – | inactive: -11.1%
Cc1ccc(C2=NN(C)c3nc4ccccc4n3C2)cc1 | inconclusive [inhibitor, partial curve] | –
O=C(Nc1ccc2ccccc2c1)/C(=C\c1ccc2c(c1)OCO2)NC(=O)c1ccco1 | inconclusive [inhibitor, single point] | –
Cc1ccccc1C(=O)N1CCN(c2ccc([N+](=O)[O-])c(NCc3cccnc3)c2)CC1 | active: 15.8 µM | –
Nc1ccc(Nc2ccccc2)c(S(=O)(=O)O)c1 | inconclusive [inhibitor, partial curve] | –

Compound | Potency | activity, negative = inhibition
C=CCC(NC(C)c1ccccc1)c1ccco1 (stereo not drawn) | inconclusive [inhibitor, single point] | –
CN1CCc2nc(SCC(=O)Nc3ccc(OC(F)(F)F)cc3)c(C#N)c(-c3cccs3)c2C1 | active: 3.16 µM | –
CCOC(=O)c1c(CSC(=N)N)n(-c2ccc(C)cc2)c2cc(Br)c(OC(C)=O)cc12 | – | inactive: 14%
COc1ccc(OC)c(NC(=O)C2CCCN(S(=O)(=O)c3c(C)noc3C)C2)c1 (stereo not drawn) | inconclusive [inhibitor, single point] | –
CN(/N=C/c1ccc(Br)o1)C1=NS(=O)(=O)c2ccccc21 | inconclusive [inhibitor, partial curve] | –
NCCSc1nc2ccccc2s1 | – | inactive: -5.04% [at 13.5 µM]
O=S(=O)(Nc1ccc2c(c1)OCCO2)c1cccs1 | – | inactive: -4.27%
Cc1ccc([N+](=O)[O-])cc1NC(=S)NC(=O)c1cccs1 | inconclusive [inhibitor, single point] | –
Cc1ccccc1NC(=O)CSc1nnc(-c2ccoc2C)n1CCc1ccccc1 | – | inactive: -12.4%
O=S(=O)(/C=C/c1ccccc1)Oc1ccccc1 | – | inactive: -13%
Cc1ccc(-c2cc(-c3ccc(C)o3)nc(N)c2C#N)cc1 | inconclusive [inhibitor, partial curve] | –
COc1cc(OC)cc(C(=O)NCc2cc(C)nc3ccccc23)c1 | inconclusive [inhibitor, single point] | –
Nc1nc2nccc(-c3cccnc3)n2n1 | inconclusive [inhibitor, single point] | –
Cc1[nH]c2ccccc2c1/C=N/NC(=O)CNC(=O)c1cccs1 | – | inactive: 3.33%
Cn1cnnc1SCC(=O)c1cccc([N+](=O)[O-])c1 | inconclusive [inhibitor, single point] | –
CCCCNC(=O)Nc1nnc(-c2ccccc2)o1 | inconclusive [inhibitor, single point] | –
COc1ccc(Cl)cc1N(CC(=O)NC(C)(C)C)S(=O)(=O)c1ccc(C)c([N+](=O)[O-])c1 | – | inactive: -3.2%
COC(=O)c1cc(NC(=O)c2cccc(Cl)c2)c(=O)oc1/C=C/Nc1cc(C)cc(C)c1 | – | inactive: -6.48%
C=CCNc1oc(/C=C/c2ccccc2)nc1C#N | inconclusive [inhibitor, partial curve] | –
CC(=O)Nc1nc(NC(=O)C(Cl)(Cl)Cl)n(-c2ccccc2)n1 | – | inactive: -7.95%
Cc1ccc(NC(=O)COC(=O)C(CC(C)C)N2C(=O)C3CC=CCC3C2=O)c(C)c1 (stereo not drawn) | – | inactive: -15.4%
CCn1c(=S)[nH]c2scc(-c3cccs3)c2c1=O | active: 14.1 µM | –
C=C(C)CNC(=S)NNC(=O)CCn1c2cc(Cl)ccc2c2ccc(Cl)cc21 | – | inactive: 9.26%
COc1ccc(Br)cc1CN(C)CC(=O)Nc1cc([N+](=O)[O-])ccc1OC | inconclusive [inhibitor, single point] | –
CN(C)c1ccc(/C=N/NC(=O)CCc2nc3ccccc3[nH]2)cc1 | inconclusive [inhibitor, partial curve] | –
